This is an account of results in the antibiotic and cytotoxicity screens of Wong et al. (2023).

The other results are listed elsewhere or left out.

The subject of the experiment is HSkMC (human skeletal muscle cells). Kind of experiment: cytotoxicity call (relative viability < 0.9). To be noted: 10 µM.
Take `COCC#Cc1ccc2c(c1)O[C@@H](CN(C)C(=O)COC)[C@@H](C)CN([C@H](C)CO)S2(=O)=O`: the cytotoxicity call is “inactive”. With `NCCN1CCO[C@@H](CC(=O)Nc2cc(Cl)cc(Cl)c2)C1=O` the entry was “inactive”. With `Cc1ccc(S[C@]2(C(=O)NCC(F)(F)F)CC(=O)N(Cc3cc(C(F)(F)F)cc(C(F)(F)F)c3)[C@@H]2c2ccc(CO)cc2I)cc1` the entry was “inactive”; with `Cc1ccc(S(=O)(=O)N[C@H]2CC[C@@H](CC(=O)N3CCC(Cc4ccccc4)CC3)O[C@@H]2CO)cc1`, “inactive”; with `O=C(C[C@H]1C[C@H]2c3cc(NS(=O)(=O)c4ccc(F)cc4)ccc3O[C@H]2[C@H](CO)O1)NC1CCCCC1`, “inactive”. With `C[C@@H]1CCCCO[C@@H](CN(C)S(=O)(=O)c2ccc(F)cc2)[C@H](C)CN([C@H](C)CO)C(=O)c2cc(NC(=O)Nc3ccc(F)cc3)ccc2O1` the entry was “inactive”; with `C[C@H]1CN([C@@H](C)CO)C(=O)Cc2cc(NS(=O)(=O)c3cn(C)cn3)ccc2O[C@@H]1CN(C)Cc1ccccc1`, “inactive”; with `C[C@@H]1CCCCO[C@@H](CN(C)Cc2ccc(C(F)(F)F)cc2)[C@@H](C)CN([C@@H](C)CO)C(=O)c2cc(N(C)C)ccc2O1`, “inactive”. Consider `C[C@H]1CN([C@@H](C)CO)C(=O)c2cccc(NC(=O)c3nc4ccccc4s3)c2O[C@H]1CN(C)Cc1ccc(Oc2ccccc2)cc1`, for which the cytotoxicity call is “inactive”. On to `C[C@H]1CN([C@@H](C)CO)C(=O)c2c(c3ccccc3n2C)-c2ccccc2CO[C@@H]1CN(C)CC1CCCCC1`, for which the cytotoxicity call is “inactive”. Consider `C[C@H]1CN([C@@H](C)CO)C(=O)c2cc(NC(=O)C3CC3)ccc2O[C@H]1CN(C)S(=O)(=O)c1ccc(Cl)cc1`, for which the cytotoxicity call was “inactive”. With `COCCOC(=O)N1C(=O)[C@@]2(c3cc(C#Cc4ccc(OC)cc4)ccc31)[C@H](C(=O)N1CCN(c3ncccn3)CC1)[C@H]1C(=O)O[C@H](c3ccccc3)[C@H](c3ccccc3)N1[C@@H]2c1ccccc1OCCO` the entry was “inactive”; with `C[C@H]1CCCCO[C@@H](CN(C)C(=O)Nc2ccccc2)[C@@H](C)CN([C@@H](C)CO)C(=O)c2cc(NC(=O)CCC(F)(F)F)ccc2O1`, “inactive”. With `C[C@H](CO)N1C[C@H](C)[C@H](CN(C)C(=O)Nc2ccc(N3CCN(C)CC3)cc2)OCc2cnnn2CCCC1=O` the entry was “inactive”; with `C[C@H](CO)N1C[C@H](C)[C@@H](CN(C)S(=O)(=O)c2ccc(F)cc2)Oc2ccc(NS(=O)(=O)c3ccc(F)cc3)cc2CC1=O`, “inactive”; with `COc1ccc2c3c(n(c2c1)C)[C@H](CO)N(C[C@]13CCN(CC1)C(=O)CN(C)C)S(=O)(=O)C`, “inactive”. On to `COc1ccc(S(=O)(=O)Nc2ccc3c(c2)CC(=O)N([C@@H](C)CO)C[C@H](C)[C@H](CN(C)C(=O)NC(C)C)O3)cc1`, for which the cytotoxicity call was “inactive”. The value for `CN1CCN(C(=O)C[C@H]2CC[C@@H](NC(=O)c3ccc4c(c3)OCO4)[C@@H](CO)O2)CC1` was “inactive”; that for `COc1ccc(S(=O)(=O)Nc2ccc3c(c2)CC(=O)N([C@H](C)CO)C[C@@H](C)[C@@H](CN(C)Cc2ccncc2)O3)cc1` was “inactive”; that for `C[C@H](CO)N1C[C@H](C)[C@H](CN(C)Cc2ccc(Oc3ccccc3)cc2)Oc2ccc(NS(=O)(=O)c3ccc(F)cc3)cc2C1=O` was “inactive”. With `N[C@@H](Cc1ccc(O)c(O)c1)C(=O)O` the entry was “inactive”; with `O=C1O[C@@H](c2ccccc2)[C@@H](c2ccccc2)N2[C@@H](c3ccccc3OCCO)[C@]3(C(=O)Nc4ccc(C#CC5(O)CCCCCC5)cc43)[C@@H](C(=O)N3CCCCCCC3)[C@H]12`, “inactive”; with `C[C@H]1CN([C@@H](C)CO)C(=O)c2cc(NC(=O)CCN3CCOCC3)ccc2O[C@H]1CN(C)S(=O)(=O)c1ccc(F)cc1`, “inactive”. With `C[C@@H]1CN([C@H](C)CO)C(=O)c2cc(C#Cc3ccc(F)cc3)cnc2O[C@@H]1CN(C)Cc1ccccn1` the entry was “inactive”; with `O=C(C[C@@H]1CC[C@H]2[C@@H](COC[C@@H](O)CN2C(=O)c2cccnc2)O1)NCC1CC1`, “inactive”; with `COc1ccc([Si](C)(C)[C@H]2[C@H](CCO)O[C@@]3(C(=O)N(Cc4cccc(N5C(=O)c6ccccc6Oc6ccccc65)c4)c4ccccc43)[C@@H]2C)cc1`, “inactive”.

For `Cc1nc(Cn2cnc3c2c(=O)n(C)c(=O)n3C)no1`, the cytotoxicity call is “inactive”. Take `C[C@H](CO)N1C[C@H](C)[C@H](CN(C)S(C)(=O)=O)Oc2ccc(NS(=O)(=O)c3cn(C)cn3)cc2C1=O`: the cytotoxicity call was “inactive”. The value for `C[C@@H]1CN([C@H](C)CO)C(=O)CCCn2cc(nn2)CO[C@H]1CN(C)S(=O)(=O)c1ccc(Oc2ccccc2)nc1` was “inactive”; that for `C[C@@H]1CN([C@H](C)CO)C(=O)c2cc(NC(=O)c3ccccc3)ccc2O[C@@H](C)CCCCO[C@@H]1CN(C)S(=O)(=O)c1ccc(Cl)cc1` was “inactive”.

As to `COc1cccc(NC(=O)N(C)C[C@@H]2Oc3ncc(C#Cc4ccncc4)cc3C(=O)N([C@@H](C)CO)C[C@@H]2C)c1`, the cytotoxicity call is “inactive”. With `Cc1c(CN2CCC(Nc3ncnc4sc(CC(F)(F)F)cc34)CC2)ccc2c1cc(C#N)n2Cc1cn[nH]c1` the entry was “active”. As for `O=C1O[C@@H](c2ccccc2)[C@@H](c2ccccc2)N2[C@@H](c3ccc(O)cc3)[C@]3(C(=O)Nc4ccc(C#CC5=CCCCC5)cc43)[C@@H](C(=O)Nc3nc4ccccc4s3)[C@H]12`, the cytotoxicity call was “inactive”. Regarding `C[C@@H]1CCCCO[C@@H](CN(C)Cc2ccncc2)[C@H](C)CN([C@@H](C)CO)C(=O)c2cc(NC(=O)CCC(F)(F)F)ccc2O1`, the cytotoxicity call is “inactive”.

For the molecule `Cn1cnc(CCNC(=O)C[C@@H]2CC[C@@H]3[C@H](COC[C@H](O)CN3C(=O)Nc3ccc(Cl)cc3)O2)c1`, the cytotoxicity call is “inactive”. On to `C[C@@H]1CN([C@H](C)CO)C(=O)Cc2cc(NS(=O)(=O)c3cn(C)cn3)ccc2O[C@H]1CN(C)C(=O)Nc1ccccc1`, for which the cytotoxicity call was “inactive”. Regarding `COC(=O)CCn1ccc(=O)[nH]c1=O`, the cytotoxicity call is “inactive”.

In the case of `C[C@@H]1CCCCO[C@H](CN(C)Cc2ccc(C(F)(F)F)cc2)[C@H](C)CN([C@H](C)CO)C(=O)c2cc(NC(=O)Nc3ccc(F)cc3)ccc2O1`, the cytotoxicity call is “inactive”.

In the case of `COc1ccc(S(=O)(=O)Nc2ccc3c(c2)C(=O)N([C@H](C)CO)C[C@H](C)[C@H](CN(C)C(=O)NC2CCCCC2)OCCCC[C@@H](C)O3)cc1`, the cytotoxicity call was “inactive”.
